Measurements reported in patent US20240076343A1 (CEPHALON, published 2024).
Where a chain is given by its changes, count along the chain named. In names and notes the source's numbering stands. Each block holds one binder with its values, some of them ahead of it.

Legend:
[1] = target: T1, human PD-1 on Jurkat cells (Jurkat+hPD-1) (human, UniProt Q15116 in part); test: flow cytometry on Jurkat cells expressing hPD-1
T1 construct: extracellular domain and a portion of the transmembrane domain, stably expressed on Jurkat cells

[2] = target: T2, native human PD-1 on PMA/ionomycin-activated primary human T cells (human, UniProt Q15116 25-288); test: flow cytometry, activated human CD3+CD8+ T cells
T2 construct: whole, on cells; also called native hPD-1

[3] = target: T2, native human PD-1 on …; test: flow cytometry, activated human CD3+CD4+ T cells
[4] = target: T3, native cynomolgus PD-1 on PMA/ionomycin-activated cynomolgus T cells (cynomolgus, UniProt B0LAJ3 25-288); test: flow cytometry, activated cynomolgus CD3+CD8+ T cells
[5] = target: T3, native cynomolgus PD-1 on …; test: flow cytometry, activated cynomolgus CD3+CD4+ T cells
[6] = target: T4, intermediate-affinity hIL-2 receptor complex (IL-2Rβγ) on TF1+IL-2Rβ cells (human, UniProt P14784 27-551; P31785 23-369); test: cell-based or functional assay
T4 sequence 1: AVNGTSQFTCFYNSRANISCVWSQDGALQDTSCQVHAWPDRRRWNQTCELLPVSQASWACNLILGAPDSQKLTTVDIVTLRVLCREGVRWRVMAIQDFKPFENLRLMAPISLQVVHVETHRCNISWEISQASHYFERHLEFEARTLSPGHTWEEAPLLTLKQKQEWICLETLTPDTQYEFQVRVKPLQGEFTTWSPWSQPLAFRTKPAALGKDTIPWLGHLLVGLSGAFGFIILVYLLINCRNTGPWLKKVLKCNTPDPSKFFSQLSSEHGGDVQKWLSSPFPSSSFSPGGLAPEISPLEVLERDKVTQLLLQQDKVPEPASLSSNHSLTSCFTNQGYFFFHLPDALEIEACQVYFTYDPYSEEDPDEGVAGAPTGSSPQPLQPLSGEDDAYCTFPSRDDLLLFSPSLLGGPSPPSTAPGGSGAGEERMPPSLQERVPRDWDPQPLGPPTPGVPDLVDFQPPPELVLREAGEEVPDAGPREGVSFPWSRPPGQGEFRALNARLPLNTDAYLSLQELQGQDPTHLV
T4 sequence 2: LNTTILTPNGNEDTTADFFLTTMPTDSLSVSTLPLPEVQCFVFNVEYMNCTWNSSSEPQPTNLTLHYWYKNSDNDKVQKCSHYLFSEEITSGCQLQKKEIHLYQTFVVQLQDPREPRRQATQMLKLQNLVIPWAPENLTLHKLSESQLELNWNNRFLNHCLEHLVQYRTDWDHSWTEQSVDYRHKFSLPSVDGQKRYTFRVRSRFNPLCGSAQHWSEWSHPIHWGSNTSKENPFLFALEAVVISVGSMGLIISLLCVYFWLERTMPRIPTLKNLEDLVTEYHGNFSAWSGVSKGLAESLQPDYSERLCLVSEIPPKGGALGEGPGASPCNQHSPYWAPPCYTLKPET

[7] = target: T5, high-affinity hIL-2 receptor (IL-2Rαβγ) on NK-92 cells (human, UniProt P01589 22-272; P14784 27-551; P31785 23-369); test: cell-based or functional assay
T5 sequence 1: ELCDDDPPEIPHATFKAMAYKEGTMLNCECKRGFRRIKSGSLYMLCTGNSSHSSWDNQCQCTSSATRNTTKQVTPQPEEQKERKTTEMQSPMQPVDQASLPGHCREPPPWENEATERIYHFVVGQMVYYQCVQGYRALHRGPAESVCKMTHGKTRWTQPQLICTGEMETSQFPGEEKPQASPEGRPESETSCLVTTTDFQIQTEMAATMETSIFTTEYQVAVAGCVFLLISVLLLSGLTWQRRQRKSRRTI
T5 sequence 2: T4 sequence 1
T5 sequence 3: T4 sequence 2

[8] = target: T6, recombinant human CD122 extracellular domain, C-terminal poly-histidine tagged (human, UniProt P14784 27-240); test: BLI (Octet)
T6 construct: also called CD122/IL-2Rβ; IL-2Rβ
T6 sequence: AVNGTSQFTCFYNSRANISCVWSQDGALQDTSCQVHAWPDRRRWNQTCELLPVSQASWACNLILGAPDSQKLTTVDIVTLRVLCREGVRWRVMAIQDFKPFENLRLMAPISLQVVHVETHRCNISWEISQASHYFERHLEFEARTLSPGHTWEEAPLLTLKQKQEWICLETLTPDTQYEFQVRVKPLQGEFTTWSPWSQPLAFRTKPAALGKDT

[9] = target: T7, high affinity hIL-2 receptor (hIL-2Rαβγ) on NK-92 cells (human, UniProt P01589 22-272; P14784 27-551; P31785 23-369); test: cell-based or functional assay
T7 sequence 1: T5 sequence 1
T7 sequence 2: T4 sequence 1
T7 sequence 3: T4 sequence 2

[10] = target: T8, intermediate affinity hIL-2 receptor (hIL-2Rβγ) on TF1+IL-2Rβ cells (human, UniProt P14784 27-551; P31785 23-369); test: cell-based or functional assay
T8 sequence 1: T4 sequence 1
T8 sequence 2: T4 sequence 2

[11] = target: T9, intermediate affinity hIL-2 receptor complex (IL-2Rβγ) (human, UniProt P14784 27-551; P31785 23-369); test: cell-based or functional assay
T9 sequence 1: T4 sequence 1
T9 sequence 2: T4 sequence 2

[12] = target: T10, high-affinity hIL-2 receptor (IL-2Rαβγ) (human, UniProt P01589 22-272; P14784 27-551; P31785 23-369); test: cell-based or functional assay
T10 sequence 1: T5 sequence 1
T10 sequence 2: T4 sequence 1
T10 sequence 3: T4 sequence 2

T3 sequence (B0LAJ3 entry or part of it limits assumed): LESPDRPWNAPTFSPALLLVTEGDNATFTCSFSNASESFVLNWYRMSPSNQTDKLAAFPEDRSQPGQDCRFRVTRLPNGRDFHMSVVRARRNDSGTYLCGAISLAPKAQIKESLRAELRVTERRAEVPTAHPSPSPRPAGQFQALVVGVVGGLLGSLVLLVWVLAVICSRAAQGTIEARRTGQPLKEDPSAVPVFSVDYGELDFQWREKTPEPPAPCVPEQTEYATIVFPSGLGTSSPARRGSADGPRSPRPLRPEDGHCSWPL

EC50 [1]: 1590 pM
B1: C51E6-5-hIgG4-L6-hIL-2 (D20A/R38E) (other)
heavy: QVQLVQSGSELKKPGASVKVSCKASGYSLYGTSMHWVRQAPGQGLEWMGYISPFTGRATYAQGFTGRFVFSLDTSVSTAYLQISSLKAEDTAVYYCARDYDYRYYYAMDYWGQGTTVTVSSASTKGPSVFPLAPCSRSTSESTAALGCLVKDYFPEPVTVSWNSGALTSGVHTFPAVLQSSGLYSLSSVVTVPSSSLGTKTYTCNVDHKPSNTKVDKRV[not shown - about 350 residues with a human IgG4 Fc and changes]
light: EIVLTQSPDFQSVTPKEKVTITCTASESVPPQFLHWYQQKPDQSPKLLIYASRERASGVPSRFSGSGSGTDFTLTINSLEAEDAATYYCHQFHRSPLTFGGGTKLEIKRTVAAPSVFIFPPSDEQLKSGTASVVCLLNNFYPREAKVQWKVDNALQSGNSQESVTEQDSKDSTYSLSSTLTLSKADYEKHKVYACEVTHQGLSSPVTKSFNRGEC
notes: anti-hPD-1 IgG4 with attenuated hIL-2 fused to the heavy chain C-terminus

EC50 [2]: 30 pM
EC50 [3]: 40 pM
EC50 [4]: 30 pM
EC50 [5]: 40 pM
B2: 2H7-hIgG4-df-hIL-2 (T3A/D20A/R38E/C125A) (other)
heavy: EVQLLESGGGLVQPGGSLRLSCAASGFTFKDYCMTWVRQAPGKGLEWVSAIVYSGGSTYYADSVKGRFTISRDNSKNTLYLQMNNLRAEDTAVYYCAKYTRASYFYDAMDVWGQGTTVTVSSASTKGPSVFPLAPCSRSTSESTAALGCLVKDYFPEPVTVSWNSGALTSGVHTFPAVLQSSGLYSLSSVVTVPSSSLGTKTYTCNVDHKPSNTKVDKRV[not shown - human IgG4 Fc with S228P (EU numbers)]APASSSTKKTQLQLEHLLLALQMILNGINNYKNPKLTEMLTFKFYMPKKATELKHLQCLEEELKPLEEVLNLAQSKNFHLRPRDLISNINVIVLELKGSETTFMCEYADETATIVEFLNRWITFAQSIISTLT
light: EIVLTQSPGTLSLSPGERATLSCRASQSIGKSFLAWYQQKPGQAPRLLIYDASTRAADIPARFSGSGSGTDFTLTISSLEPEDFAVYYCQQYYDWPPLSFGGGTKVEIKRTVAAPSVFIFPPSDEQLKSGTASVVCLLNNFYPREAKVQWKVDNALQSGNSQESVTEQDSKDSTYSLSSTLTLSKADYEKHKVYACEVTHQGLSSPVTKSFNRGEC

EC50 [1]: 218 pM
B3: H7-632-hIgG1-LAGA-df-hIL-2 (T3A/D20A/R38E/C125A) (other)
heavy: EVQLLESGGGLVQPGGSLRLSCAASGFTFKSYAMHWVRQAPGKGLEWVSAIVYSGGSTYYADSVKGRFTISRDNSKNTLYLQMNSLRAEDTAVYYCAKYDRASYFYDAMDVWGQGTTVTVSS[not shown - human IgG1 constant region with L235A G237A (EU numbers)]APASSSTKKTQLQLEHLLLALQMILNGINNYKNPKLTEMLTFKFYMPKKATELKHLQCLEEELKPLEEVLNLAQSKNFHLRPRDLISNINVIVLELKGSETTFMCEYADETATIVEFLNRWITFAQSIISTLT
light: B2 light with G30S, K31S, T54D, A57T, D58G, A61D, S78R
notes: anti-hPD-1 IgG1-LAGA with attenuated hIL-2 directly fused to the heavy chain C-terminus

Second part, the binder before the results:

B4: 2H7-hIgG4-df-hIL-2 (D20A/R38E) (other)
heavy: EVQLLESGGGLVQPGGSLRLSCAASGFTFKDYCMTWVRQAPGKGLEWVSAIVYSGGSTYYADSVKGRFTISRDNSKNTLYLQMNNLRAEDTAVYYCAKYTRASYFYDAMDVWGQGTTVTVSSASTKGPSVFPLAPCSRSTSESTAALGCLVKDYFPEPVTVSWNSGALTSGVHTFPAVLQSSGLYSLSSVVTVPSSSLGTKTYTCNVDHKPSNTKVDKRV[not shown - about 350 residues with a human IgG4 Fc]
light: B2 light
notes: as for B1
EC50 [1]: 195 pM

B5: 1H3-hIgG1-L6-hIL-2 (L72A) (other)
heavy: EVQLVESGGGLVQPGRSLKLSCAVSGFTFSDYAMAWVRQAPKKGLEWVATISYDGSRTYYRDSVKGRFTISRDNAKITLYLQMDSLRSEDTATYYCARHGSGYFDYWGQGVMVTVSS[not shown - about 450 residues with a human IgG1 Fc and changes]
light: DTVLTQSPALAVSPGERVTISCRASESVRTGVHWYQQKPGQQPKLLIYGASNLESGVPARFSGSGSGTDFTLTIDPVEADDTATYFCQQSWNDPFTFGSGTKLEIKRTVAAPSVFIFPPSDEQLKSGTASVVCLLNNFYPREAKVQWKVDNALQSGNSQESVTEQDSKDSTYSLSSTLTLSKADYEKHKVYACEVTHQGLSSPVTKSFNRGEC
notes: Built as m13
Fold change from hIL-2 (TF1 + IL-2Rβ), fixed concentration pSTAT5 screen [6]: 1 fold
Fold change from hIL-2 (NK-92), fixed concentration pSTAT5 screen [7]: 1 fold
Kd [8]: 9080 pM
koff [8]: 0.00134 s⁻¹
kon [8]: 147000 M⁻¹ s⁻¹

B6: 1H3-hIgG1-L6-hIL-2 (D20A/R38E/C125A) (other)
heavy: EVQLVESGGGLVQPGRSLKLSCAVSGFTFSDYAMAWVRQAPKKGLEWVATISYDGSRTYYRDSVKGRFTISRDNAKITLYLQMDSLRSEDTATYYCARHGSGYFDYWGQGVMVTVSS[not shown - human IgG1 constant region]SGGGGSAPTSSSTKKTQLQLEHLLLALQMILNGINNYKNPKLTEMLTFKFYMPKKATELKHLQCLEEELKPLEEVLNLAQSKNFHLRPRDLISNINVIVLELKGSETTFMCEYADETATIVEFLNRWITFAQSIISTLT
light: B5 light
Fold change from rhIL-2 (NK-92) [9]: > 10000 fold
Fold change from rhIL-2 (TF1 + IL-2Rβ) [10]: ~2100 fold

B7: 1H3-hIgG1-L6-hIL-2 (T3A/D20A/R38E/C125A) (other)
heavy: EVQLVESGGGLVQPGRSLKLSCAVSGFTFSDYAMAWVRQAPKKGLEWVATISYDGSRTYYRDSVKGRFTISRDNAKITLYLQMDSLRSEDTATYYCARHGSGYFDYWGQGVMVTVSS[not shown - human IgG1 constant region]SGGGGSAPASSSTKKTQLQLEHLLLALQMILNGINNYKNPKLTEMLTFKFYMPKKATELKHLQCLEEELKPLEEVLNLAQSKNFHLRPRDLISNINVIVLELKGSETTFMCEYADETATIVEFLNRWITFAQSIISTLT
light: B5 light
Fold change from rhIL-2 (NK-92) [9]: > 10000 fold
Fold change from rhIL-2 (TF1 + IL-2Rβ) [10]: ~1090 fold

B8: 1H3-hIgG1-L6-hIL-2 (T3A/D20A/R38E) (other)
heavy: EVQLVESGGGLVQPGRSLKLSCAVSGFTFSDYAMAWVRQAPKKGLEWVATISYDGSRTYYRDSVKGRFTISRDNAKITLYLQMDSLRSEDTATYYCARHGSGYFDYWGQGVMVTVSS[not shown - human IgG1 constant region]SGGGGSAPASSSTKKTQLQLEHLLLALQMILNGINNYKNPKLTEMLTFKFYMPKKATELKHLQCLEEELKPLEEVLNLAQSKNFHLRPRDLISNINVIVLELKGSETTFMCEYADETATIVEFLNRWITFCQSIISTLT
light: B5 light
Agonistic Activity (TF1 + IL-2Rβ), pSTAT5 titration [11]: 60%
Fold change from rhIL-2 (NK-92), pSTAT5 titration [12]: > 10000 fold

B9: 1H3-hIgG1-L6-hIL-2 (L72F) (other)
heavy: EVQLVESGGGLVQPGRSLKLSCAVSGFTFSDYAMAWVRQAPKKGLEWVATISYDGSRTYYRDSVKGRFTISRDNAKITLYLQMDSLRSEDTATYYCARHGSGYFDYWGQGVMVTVSS[not shown - about 450 residues with a human IgG1 Fc and changes]
light: B5 light
notes: Built as m13
Fold change from hIL-2 (TF1 + IL-2Rβ), fixed concentration pSTAT5 screen [6]: 1 fold
Fold change from hIL-2 (NK-92), fixed concentration pSTAT5 screen [7]: 1 fold
Kd [8]: 5040 pM
koff [8]: 0.00115 s⁻¹
kon [8]: 228000 M⁻¹ s⁻¹
